The whole screen tested about 310,000 compounds, of which about 14,000 (4.5%) showed an effect of 50% or more. Effects have a minus sign here. The list shows a part of the results.
Target: human ether-à-go-go-related gene (hERG) potassium channel (human, UniProt Q12809)
Assay: primary screen, population patch clamp on CHO cells stably expressing hERG
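Also: peak tail current of the secondary pulse compared with the same well before compound.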

human ether-à-go-go-related gene (hERG) potassium channel, sequence (Q12809 whole entry, looked up): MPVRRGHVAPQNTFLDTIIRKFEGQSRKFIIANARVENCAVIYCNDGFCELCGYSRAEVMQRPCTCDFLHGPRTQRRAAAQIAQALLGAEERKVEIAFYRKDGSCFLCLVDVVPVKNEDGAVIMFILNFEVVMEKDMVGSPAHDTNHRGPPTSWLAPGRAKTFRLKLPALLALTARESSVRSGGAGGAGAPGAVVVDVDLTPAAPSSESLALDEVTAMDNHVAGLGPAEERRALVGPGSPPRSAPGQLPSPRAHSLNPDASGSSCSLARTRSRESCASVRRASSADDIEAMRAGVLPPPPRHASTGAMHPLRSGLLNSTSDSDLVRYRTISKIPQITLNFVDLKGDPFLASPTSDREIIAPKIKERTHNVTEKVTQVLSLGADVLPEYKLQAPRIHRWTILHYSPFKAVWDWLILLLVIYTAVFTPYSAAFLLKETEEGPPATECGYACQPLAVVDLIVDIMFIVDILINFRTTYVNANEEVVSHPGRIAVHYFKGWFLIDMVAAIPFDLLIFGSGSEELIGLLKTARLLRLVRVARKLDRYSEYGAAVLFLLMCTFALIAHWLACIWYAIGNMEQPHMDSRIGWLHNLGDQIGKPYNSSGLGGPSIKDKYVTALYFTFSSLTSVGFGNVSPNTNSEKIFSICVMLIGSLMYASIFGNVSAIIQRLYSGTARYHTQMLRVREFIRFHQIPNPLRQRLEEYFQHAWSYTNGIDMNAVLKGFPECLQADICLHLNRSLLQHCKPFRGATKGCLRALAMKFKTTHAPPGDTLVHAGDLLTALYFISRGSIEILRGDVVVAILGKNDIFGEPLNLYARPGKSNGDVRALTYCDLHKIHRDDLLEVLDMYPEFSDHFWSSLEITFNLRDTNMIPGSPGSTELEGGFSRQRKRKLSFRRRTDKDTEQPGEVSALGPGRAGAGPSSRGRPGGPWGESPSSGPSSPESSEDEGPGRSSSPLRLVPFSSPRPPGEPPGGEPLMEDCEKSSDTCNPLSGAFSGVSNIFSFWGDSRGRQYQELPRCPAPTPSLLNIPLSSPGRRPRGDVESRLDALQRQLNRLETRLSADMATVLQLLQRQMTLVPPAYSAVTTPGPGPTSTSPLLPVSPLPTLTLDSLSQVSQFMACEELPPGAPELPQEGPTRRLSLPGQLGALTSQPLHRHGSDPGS

| SMILES | hERG current change (%, negative = inhibition) at 10uM [%] |
| --- | --- |
| CCOc1cc(-c2cc(-c3ccc(C)cc3)nc(N)c2C#N)ccc1O | -3.7 |
| CCc1ccc(-n2nnnc2SCC(=O)NNC(=O)c2ccco2)cc1 | -11.1 |
| Cc1ccc(CNC(=O)COC(=O)c2cc3c(s2)CCC(C)C3)cc1 (stereo not shown) | 17.6 |
| N#CCSc1ccc2nc(-c3ccccc3)cn2n1 | -6.5 |
| CC1(C)C2CCC(C2)C1(C)NC(=O)C[N+](C)(C)C.[Cl-] (stereo not shown) | 12.6 |
| O=C(Cc1cccc(NC(=O)C2CCCN(C(=O)CCc3ccccc3)C2)c1)Nc1cccc(C(=O)N2CCCC2)c1 (stereo not shown) | -39.5 |
| Cc1ccc(NC(=O)CSc2nnc(NC(=O)CN3CCOCC3)s2)cc1 | -5.82 |
| Cc1ccccc1CCNC(=O)C1CCC(=O)N(Cc2ccc(Cl)cc2)C1 (stereo not shown) | -33.4 |
| CCOC(=O)CSc1nnc(CNC(=O)c2cccs2)n1-c1cc(OC)ccc1OC | -16.9 |
| Brc1cccc(CNCCc2ccc3c(c2)OCO3)c1.O=C(O)C(=O)O | -24.9 |
| O=C(NCC1COCCO1)c1cc(COc2c(F)cccc2F)on1 (stereo not shown) | 9.36 |
| Cc1ccc2oc(C(=O)N3CCN(c4cccc(C)n4)CC3)c(C)c2c1 | 8.84 |
| CSc1ncccc1C(=O)OCC(=O)Nc1ccc(S(=O)(=O)N2CCCC2)cc1 | -2.68 |
| CS(=O)(=O)c1ccc2nc(NC(=O)CN3CCC(Cc4ccccc4)CC3)sc2c1 | -4.71 |
| CCOC(=O)N1CCN(S(=O)(=O)c2ccc(F)c(C(=O)Nc3cccc(C)c3C)c2)CC1 | 7.02 |
| CC(c1ccccc1)C(CC(=O)O)C(=O)Nc1ccc(Cl)c(Cl)c1 (stereo not shown) | 13.8 |
| O=C(COC(=O)C1(c2ccc(F)cc2)CCCC1)Nc1ncc(C(F)(F)F)cc1Cl | -22.4 |
| COc1cccc(N=CC2=C(O)CCCC2=O)c1 | 32.9 |
| Cc1nc(N2CCC(C)CC2)c2c(C)c(C(=O)Nc3cccc(C(F)(F)F)c3)sc2n1 | 5.74 |
| CC(C)Oc1ccc(CNC(=O)c2cc(S(=O)(=O)N3CCOCC3)cn2C)cc1 | 5.3 |

| SMILES | hERG current change (%, negative = inhibition) at 10uM [%] |
| --- | --- |
| CCS(=O)(=O)N1CCC(NC(=O)C2CCCCC2)CC1 | 13.7 |
| CCCCNC(=O)C1CCCNC1=O (stereo not shown) | 2.58 |
| O=C(NCC1CCCO1)C(c1ccncc1)N(Cc1cccs1)C(=O)Cn1nnc(-c2ccc(F)cc2)n1 (stereo not shown) | -60.1 |
| CN(C)c1cccc(NC(=O)c2cccc3ccccc23)c1 | 15.4 |
| Cc1ccc(NC(=O)C2COc3ccccc3O2)cc1 (stereo not shown) | 2.06 |
| O=S(=O)(c1ccc(Br)cc1)N1CCCC1 | -7.87 |
| CCOC(=O)c1ccc(NC(=S)N(CCN(C)C)Cc2cccs2)cc1 | -9.16 |
| Cc1cnnn1-c1ccc(C(=O)CCl)cc1 | 19.2 |
| Cc1cc(C(F)(F)F)nn2cnnc12 | 16.5 |
| Cc1cccc(C)c1NC(=O)CNC(=O)c1ccc(COc2ccccc2)o1 | -3.59 |
| CCOC(=O)c1ccc(NC(=O)CSc2nccn2C)cc1 | 3.34 |
| N#CCCSc1nc(N2CCOCC2)c2c(c1C#N)CCCC2 | -31.5 |
| COc1ccccc1NC(=O)CCCC(=O)OCC(F)(F)C(F)F | -1.37 |
| CC(C)C(=O)Nc1nnc(SCC(=O)NCc2ccco2)s1 | -6.31 |
| CCS(=O)(=O)N1CCN(Cc2c[nH]c3ccccc23)CC1.O=C(O)C(=O)O | 5.44 |
| CCc1nc2ccc(C)cc2c(C(=O)Oc2cccc3cccnc23)c1C | 15.1 |
| COc1cccc(/C=C/C(=O)OCC(=O)Nc2cccc(S(=O)(=O)N3CCOCC3)c2)c1OC | -17.1 |
| COc1ccc(OC)c(Nc2nc(-c3sc(NC(=O)CC(C)C)nc3C)cs2)c1 | 13.5 |
| O=C(c1ccccc1)N1CCN(c2ncnc3c(-c4ccccc4)nsc23)CC1 | 6.38 |
| CSc1nnc(C)c(/C=C/Nc2ccc(F)cc2)n1 | -5.65 |

| SMILES | hERG current change (%, negative = inhibition) at 10uM [%] |
| --- | --- |
| CC(=O)C1C(c2cccc(F)c2)NC(=O)NC1(O)C(F)(F)F (stereo not shown) | 6.15 |
| Cc1ccc(Nc2nc(N/N=C/c3c[nH]c4ccccc34)nc(N3CCOCC3)n2)cc1 | -3.42 |
| CN1CCN(CCCNC(=O)c2cc3c(-c4ccc(Cl)cc4)nn(C)c3s2)CC1 | -40.1 |
| Cc1c[n+]([O-])n(-c2ccc(C(=O)O)cc2)n1 | 0.473 |
| Cn1c(=O)oc2cc(S(=O)(=O)NCc3ccncc3)ccc21 | 12.4 |
| CN1CCN(C2CCCCC2NS(=O)(=O)c2ccccc2)CC1 (stereo not shown) | 9.24 |
| CC(C)NC(=O)C(=O)NCCCN1CCOCC1 | 25.1 |
| O=c1[nH]c2ccccc2c(O)c1-c1ccccc1[N+](=O)[O-] | 20.6 |
| CCn1c(C)nc2cc(C(=O)NNS(=O)(=O)c3ccc(C)c(C)c3)ccc21 | -14.5 |
| NC(=O)Cc1nc(-c2ccc([N+](=O)[O-])cc2)cs1 | -4.22 |
| CCOC(=O)c1cnn(CCOC(=O)c2cccc(F)c2)c1NC(=O)c1cccc(F)c1 | 24 |
| COC(=O)c1c(NC(=O)c2ccc(C)cc2)csc1C | 7.8 |
| O=C(NCCc1ccccc1)c1ccco1 | 0.15 |
| CC(C)NC(=O)c1cccc2c1-c1ccccc1C2=O | 15.6 |
| CC1Cc2ccccc2N1CC(=O)Nc1cccc(S(N)(=O)=O)c1 (stereo not shown) | 13.3 |
| O=C(CN1CCN(c2ccc(Cl)cc2)CC1)Nc1ccc(F)cc1 | -60.9 |
| COc1ccc(/C(C)=N/NC(=O)c2ccncc2)cc1[N+](=O)[O-] | -10.9 |
| COc1ccc(NC(=O)C(NC(=O)Cc2cccs2)c2ccccc2)cc1 (stereo not shown) | 14.8 |

— publication PMC4336329 (PLoS ONE, 2015)
